The record followed here is article PMC4336329 (PLoS ONE, 2015).

The campaign covered roughly 310,000 compounds. About 14,000 (4.5%) showed an effect of 50% or more. Effects have a minus sign here. The list shows a part of the results.
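Also: peak tail current of the secondary pulse compared with the same well before compound.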

In this assay the target is human ether-à-go-go-related gene (hERG) potassium channel (human, UniProt Q12809). Nature of the assay: primary screen, population patch clamp on CHO cells stably expressing hERG.
human ether-à-go-go-related gene (hERG) potassium channel, sequence (Q12809 whole entry, looked up): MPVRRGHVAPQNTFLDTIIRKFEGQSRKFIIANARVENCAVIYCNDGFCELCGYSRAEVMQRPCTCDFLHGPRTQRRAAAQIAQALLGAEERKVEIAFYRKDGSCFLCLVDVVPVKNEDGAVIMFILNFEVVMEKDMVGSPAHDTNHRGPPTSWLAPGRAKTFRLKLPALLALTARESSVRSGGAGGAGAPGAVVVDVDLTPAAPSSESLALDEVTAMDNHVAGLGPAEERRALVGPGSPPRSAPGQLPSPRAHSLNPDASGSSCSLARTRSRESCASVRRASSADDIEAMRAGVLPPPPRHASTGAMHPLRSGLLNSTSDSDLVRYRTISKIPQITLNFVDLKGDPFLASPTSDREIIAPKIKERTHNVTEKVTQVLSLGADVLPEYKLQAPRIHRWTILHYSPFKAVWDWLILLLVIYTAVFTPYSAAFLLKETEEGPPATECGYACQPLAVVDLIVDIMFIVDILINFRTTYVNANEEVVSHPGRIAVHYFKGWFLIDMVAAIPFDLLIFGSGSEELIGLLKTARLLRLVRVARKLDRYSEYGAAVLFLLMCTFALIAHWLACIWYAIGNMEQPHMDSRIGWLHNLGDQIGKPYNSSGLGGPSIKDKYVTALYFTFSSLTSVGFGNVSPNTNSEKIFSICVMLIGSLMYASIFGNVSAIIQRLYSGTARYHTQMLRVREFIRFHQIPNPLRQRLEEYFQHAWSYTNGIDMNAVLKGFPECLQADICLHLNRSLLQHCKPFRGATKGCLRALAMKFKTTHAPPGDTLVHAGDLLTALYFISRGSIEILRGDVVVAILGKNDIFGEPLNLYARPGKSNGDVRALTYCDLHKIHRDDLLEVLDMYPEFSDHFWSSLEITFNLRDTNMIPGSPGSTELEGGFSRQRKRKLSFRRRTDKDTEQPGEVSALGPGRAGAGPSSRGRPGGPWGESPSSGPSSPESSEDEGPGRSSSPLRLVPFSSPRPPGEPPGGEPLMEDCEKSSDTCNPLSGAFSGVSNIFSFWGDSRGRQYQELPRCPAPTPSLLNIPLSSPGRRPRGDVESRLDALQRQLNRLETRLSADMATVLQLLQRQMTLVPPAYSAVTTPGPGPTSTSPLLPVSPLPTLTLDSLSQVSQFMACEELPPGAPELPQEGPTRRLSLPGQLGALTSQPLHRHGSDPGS
As to `O=C(CN1C(=O)S/C(=C\c2ccc(Cl)cc2)C1=O)NCCCn1ccnc1`, the “hERG current change (%, negative = inhibition) at 10uM” value was -68.2%. Then `Cc1ccsc1/C=C(\C#N)C(=O)Nc1c(C)n(C)n(-c2ccccc2)c1=O`, with -11.1%. Consider `CCCCn1c(=N)n(CC(O)COc2ccc(C)cc2)c2ccccc21.Cl` (stereo not drawn), for which the “hERG current change (%, negative = inhibition) at 10uM” value is recorded as -81.8%.

As to `COCCCN1C(=O)C(=O)/C(=C(/O)c2ccc(S(=O)(=O)N3CCOCC3)cc2)C1c1ccc(C(C)C)cc1` (stereo not drawn), the “hERG current change (%, negative = inhibition) at 10uM” value is given as -0.0518%. Then `CC(C)(C)NC(=O)CN(Cc1ccccc1)S(=O)(=O)c1ccccc1`, with -9.12%. Then `O=C(CSc1nnc(COc2cccc3cccnc23)o1)N1CCCC1`, with 3.55%. Take `CCn1ccc(C(=O)NC2CCCC2)n1`: the “hERG current change (%, negative = inhibition) at 10uM” value is recorded as 8.02%. Then `O=C(O)CC(CC(=O)Nc1ccc(-n2ccc(C(F)(F)F)n2)cc1)c1ccccc1` (stereo not drawn), with 6.08%. Then `O=C(O)c1cc(-c2ccc(Cl)cc2)n(-c2ccccc2)n1`, with 30.3%; and `CCCCNC(=O)COC(=O)CCC(=O)c1cccs1`, with 12.8%; and `O=C(NCCC(c1ccccc1)c1ccccc1)c1cnc2sccn2c1=O`, with 11.9%. With `O=C(O)c1ccc2cc(-c3ccccc3)[nH]c2c1` the figure was -30.8%; with `CCOC(=O)c1nn(-c2ccccc2)c(=O)cc1OCC(=O)Nc1cc(C)ccc1C`, -4.22%.

In the case of `CC1(C)CC(=O)C(C2(O)C(=O)NC(=O)NC2=O)=C(O)C1`, the “hERG current change (%, negative = inhibition) at 10uM” value is recorded as -11.4%. With `O=C(CC1CCCC1)Nc1ccc(Br)cc1` the figure was -4.39%; with `CCN(CC)C(=O)C(=O)c1cccn1-c1cccc(Cl)c1C#N`, 2.32%. With `CN(CC(=O)Nc1ccccc1C(F)(F)F)C(=O)c1cc2c(s1)CCCCC2` the figure was -29.2%; with `O=C(NC1CCCC1)c1cc2ccccc2o1`, -0.288%; with `COc1ccc(Cl)cc1NC(=O)CN(C)C(C)C(=O)NC(=O)NC1CCCCC1` (stereo not drawn), -2.98%. Then `O=C(CSc1ccc(F)cc1)NC1CCCCC1`, with 15.9%. Turning to `Cc1nc(NC(=O)CN2CCN(c3ccccc3F)CC2)sc1C(=O)N(C)C`, the “hERG current change (%, negative = inhibition) at 10uM” value is given as 16.3%. Turning to `O=C1C=C(NCCc2ccccc2)C2(CCCCC2)O1`, the “hERG current change (%, negative = inhibition) at 10uM” value was found to be 21.4%. Take `c1ccc(CCN2CN=C(Nc3nc4ccccc4s3)NC2)cc1`: the “hERG current change (%, negative = inhibition) at 10uM” value was -1.49%.

In the case of `CCOC(=O)C(C)N1C(=O)S/C(=C/c2cc(C)n(-c3ccncc3)c2C)C1=O` (stereo not drawn), the “hERG current change (%, negative = inhibition) at 10uM” value is -18.3%. Then `CCOc1ccc(-n2nc3ccc(NC(=O)CC)cc3n2)cc1`, with 10.2%. With `Cc1ccc(C)c(N(CC(=O)NC2CCCC2)C(=O)c2oc(C(C)(C)C)cc2C)c1` the figure was -6.15%; with `Cc1cnn(-c2cc(N/N=C/c3cccc(F)c3)ncn2)c1`, 8.61%. With `CSCC(=O)N1CCCC(C(=O)c2cc(F)ccc2F)C1` (stereo not drawn) the figure was -1.1%. `COc1cc(C(=O)Nc2ccc(C(=O)NCC3CCCO3)cc2)cc(OC)c1OC` (stereo not drawn): the “hERG current change (%, negative = inhibition) at 10uM” value stood at 19.5%. Turning to `O=C(O)C1CCCN(S(=O)(=O)c2ccc(Br)s2)C1` (stereo not drawn), the “hERG current change (%, negative = inhibition) at 10uM” value was -0.142%. With `O=C(NC1CC1)C1CCN(C2CCN(C(=O)Cc3ccc(F)cc3)CC2)CC1` the figure was -2.99%; with `Cc1ccccc1/C=N/n1c(C2CCCCC2)n[nH]c1=S`, 19.6%. As to `O=C(O)C(Cc1ccccc1)NS(=O)(=O)c1ccc2c(c1)OCCO2` (stereo not drawn), the “hERG current change (%, negative = inhibition) at 10uM” value is on record as 8.3%.

Take `CCN1C(=O)[C@@H]2[C@@H](c3ccc(-c4cccc(Cl)c4)c(OC)c3)N3CCCC[C@@]3(C(=O)OC)[C@@H]2C1=O.O=C(O)C(F)(F)F`: the “hERG current change (%, negative = inhibition) at 10uM” value is reported as 14.7%.

As to `Oc1ccccc1C1=Nc2ccccc2N=C(c2ccco2)C1`, the “hERG current change (%, negative = inhibition) at 10uM” value is on record as -12.7%. On to `COC(=O)CN1C(=O)C2(OCCCO2)c2cc(Br)ccc21`, for which the “hERG current change (%, negative = inhibition) at 10uM” value was 9.66%. With `CC(=O)NC(=O)COC(=O)c1ccc2ncsc2c1` the figure was 18.5%. As for `CC(C)CN(Cc1cc2ccccc2[nH]c1=O)C(=O)c1cccnc1`, the “hERG current change (%, negative = inhibition) at 10uM” value is on record as -1.54%. Then `COc1ccc(CCNC(=O)CN2CCCc3ccccc32)cc1OC`, with 2.6%; and `COP(=O)(C#Cc1ccccc1)C(O)c1ccc(Br)cc1` (stereo not drawn), with 3.77%. With `COc1cc(C(=O)OC(C)C(=O)N2CCc3ccccc3C2)ccc1OCC(=O)N1CCOCC1` (stereo not drawn) the figure was -10.1%; with `CCC(=O)Nc1nc(C)c(Oc2ccccc2)c(=O)[nH]1`, -2.65%; with `CCN=c1sc(C(=O)Nc2ccccc2)c(C)n1CC`, -17.4%. With `Cc1onc(-c2ccccc2Cl)c1C(=O)NC(=S)NCCc1ccccc1` the figure was 1.29%; with `O=C(CSC1=NS(=O)(=O)c2ccccc2N1)c1ccccc1`, -8.85%.
